PubChem BioAssay AID651820 (National Center for Advancing Translational Sciences (NCATS), 2012)
Values joined by “and” are separate entries in the source; they are usually repeats but may differ in a detail not shown here. Equal entries are not always repeated. Out of some 340,000 compounds screened, about 12,000 (3.5%) were called active. Inconclusive results, whose numbers are uncertain, are shown with a selection of clear calls. The call rests on the fitted dose curve; in most records, active means well fitted inhibition curve with a large enough effect; inconclusive means small, poorly fitted or top-dose-only effect, or another doubt; inactive means no such curve, though single readings can be large or run the other way. Potencies beside an inconclusive call are fits to weak or partial responses and may not hold up.

Experiment: qHTS Assay for Inhibitors of Hepatitis C Virus (HCV)
Settings: Huh7.5.1 HCVcc-Cre (HCVcc is cell-culture hepatitis C virus) infection, luciferase reporter, 44 h; series mostly up to 41.8 µM
Method in brief: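 After 44 h co-culture of compound, cells and HCVcc-Cre (~0.5 moi), substrate is added for 15 min at room temperature and luciferase measured over 15 sec. Cells were seeded at 1,000/well and pre-cultured 4 h.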
Potency means the concentration at half of the fitted maximal effect; tags describe the fitted curve by direction and shape.

Row | Compound | Potency
1 | Cc1nn(C2CCS(=O)(=O)C2)c(Cl)c1/C=C/C(=O)OCC(=O)c1cc(C)n(-c2ccc(F)cc2)c1C (configuration not stated) | active: 3.98 µM
2 | Cc1cccc(NC(=O)CN2CCC(C(=O)c3ccc4c(c3)OCCO4)CC2)c1 | inconclusive: 11.2 µM [inhibitor, partial curve, poor fit]
3 | COc1cc2cc(C(=O)N/N=C/c3ccccc3Cl)[nH]c2cc1OC | inconclusive: 20 µM [inhibitor, partial curve, poor fit]
4 | O=C(CSc1n[nH]c(=O)n1-c1cccnc1)N1CCOCC1 | inactive
5 | CCc1nnc(NC(=O)COC(=O)c2cc(OC)cc(OC)c2)s1 | inactive
6 | C=CCNc1nc(-c2sc(NC(=O)CC)nc2C)cs1 | inconclusive: 35.5 µM [inhibitor, single point]
7 | CCCCCC(C)NC(=O)c1cc(S(=O)(=O)N2CCCCC2)ccc1N1CCOCC1 (configuration not stated) | inactive
8 | CCOC(=O)[C@@H]1[C@H]2COc3ccc(Br)cc3[C@H]2N2C(=O)N(c3cccc(F)c3)C(=O)[C@]12C | inactive
9 | Cc1ccc(S(=O)(=O)N2CCOCC2)cc1C(=O)N1CCN(c2ncccn2)CC1 | inactive
10 | O=C1CCCCC1Nc1ccc2ccccc2c1 (configuration not stated) | inconclusive: 31.6 µM [inhibitor, single point]
11 | O=C(CSc1nc2nn(-c3ccccc3)c(=O)c-2c2n1CCCCC2)Nc1cccc(F)c1 | inconclusive: 22.4 µM [inhibitor, single point]
12 | COc1ccccc1NC(=O)c1ccc(NC(=O)C2COc3ccccc3O2)cc1 (configuration not stated) | inconclusive: 0.501 µM [inhibitor, full curve, poor fit]
13 | Cc1nc(Nc2ccccc2)sc1-c1ccccc1 | inconclusive: 31.6 µM [inhibitor, single point]
14 | COc1ccc2nc(C)cc(Nc3ccc(N4CCOCC4)cc3)c2c1 | inconclusive: 22.4 µM [inhibitor, single point]
15 | C=C(C)CNC(=S)N/N=C/c1ccc(NC(C)=O)cc1 | inactive
16 | CCn1cc(Cl)c(C(=O)Nc2c(C)nn(Cc3c(F)c(F)c(F)c(F)c3F)c2C)n1 | inconclusive: 3.16 µM [inhibitor, single point]
17 | CCOC(=O)C1=C(C)OC(N)=C(C#N)C1c1cc(C)sc1C (configuration not stated) | inactive
18 | O=C1c2ccccc2CCCC12N=NCC2c1cccc2ccccc12 (configuration not stated) | active: 2.82 µM
19 | CCOC(=O)N1CCN(C(=O)c2cc3cc(OC)c(OC)cc3[nH]2)CC1 | inactive
20 | CCOC(=O)CSC1=C(C#N)C(c2ccccc2C)C2=C(CCCC2=O)N1 (configuration not stated) | inactive
21 | COc1ccc(N(CC(=O)NCCSc2ccccc2)S(=O)(=O)c2ccccc2)cc1OC | inconclusive: 35.5 µM [inhibitor, partial curve]
22 | CC(C)c1cccc(C(C)C)c1NC(=O)CN1C(=O)NC2(CCCCCCC2)C1=O | inactive
23 | COc1cc2c(C(=O)NCCCN3CCN(c4cccc(Cl)c4)CC3)cn(C)c(=O)c2cc1OC | inactive
24 | O=C(Cn1cc(C(=O)c2cccs2)c2ccccc21)NCc1cccs1 | inconclusive: 12.6 µM [inhibitor, single point]

Row | Compound | Potency
25 | CC(Oc1ccccc1)C(=O)Nc1nc(-c2ccccn2)cs1 (configuration not stated) | inconclusive: 25.1 µM [inhibitor, single point]
26 | Cc1cccc(OCc2nc(C#N)c(N3CCCC3)o2)c1 | inconclusive: 22.4 µM [inhibitor, single point]
27 | COc1ccc(CCNc2nc(-c3ccc(O)cc3)cs2)cc1OC | inconclusive: 20 µM [inhibitor, single point]
28 | CCCCn1c(N)c(N(CC)C(=O)Cc2ccc(S(=O)(=O)N3CCOCC3)s2)c(=O)[nH]c1=O | inactive
29 | COc1cc(NC(=O)CNc2ccc(Cl)c(S(=O)(=O)N3CCOCC3)c2)cc(OC)c1 | inconclusive: 14.1 µM [inhibitor, single point]
30 | CC(C)NC(=O)NC1C2CC3CC(C2)CC1C3 (configuration not stated) | inactive
31 | CCCCNS(=O)(=O)c1ccc(S(=O)(=O)NCc2ccncc2)cc1 | active: 10 µM
32 | COc1ccc(/C=C2\C(=O)NC(=S)N2C(=O)c2ccc(C)cc2)cc1 | inactive
33 | CCOc1ccc(N(CC(=O)Nc2ccc(OC)cc2)S(=O)(=O)c2c(C)noc2C)cc1 | inactive
34 | CCc1nnc(NC(=O)CSCc2cc(=O)n3ccsc3n2)s1 | inactive
35 | CCOc1ccc(NC(=O)COc2nsnc2N2CCCCC2)cc1 | inconclusive: 10 µM [inhibitor, partial curve]
36 | Cc1ccccc1C(=O)N1CCN=C1SCc1ccc([N+](=O)[O-])cc1 | inconclusive: 31.6 µM [inhibitor, single point]
37 | Cc1onc(-c2ccccc2Cl)c1C(=O)OCC(=O)N1CCN(c2ccccc2)CC1 | inconclusive: 31.6 µM [inhibitor, single point]
38 | Cc1ccc(-n2c(SCC(=O)Nc3cc(C)on3)nc3c([nH]c4ccccc43)c2=O)cc1 | inconclusive: 3.98 µM [inhibitor, full curve, poor fit]
39 | COc1cc(C(=O)OC2CSCC2NC(=O)c2ccccc2)cc(OC)c1OC (configuration not stated) | inconclusive: 11.2 µM [inhibitor, single point]
40 | Cc1ccccc1CC1(CO)CCCN(Cc2nc(-c3cccs3)oc2C)C1 (configuration not stated) | inconclusive: 12.6 µM [inhibitor, partial curve, poor fit]
41 | CCOC(=O)NC1(NCC(C)C)Oc2ccccc2O1 | inconclusive: 31.6 µM [inhibitor, single point]
42 | O=C(CSc1nnc(CNc2ccc(F)cc2)o1)N1CCCc2ccccc21 | inconclusive: 31.6 µM [inhibitor, single point]
43 | CN(C)CCCNC(=S)N1CCC(c2nc3ccccc3[nH]2)CC1 | inconclusive: 25.1 µM [inhibitor, single point]
44 | CC1=C(N2CCCCC2)CCC1=O | inactive
45 | CC1CCN(CC(O)CN2c3ccccc3Sc3ccccc32)CC1 (configuration not stated) | inconclusive: 22.4 µM [inhibitor, single point]
46 | O=C(Nc1ccccc1)N1CCN(c2nc(-c3ccccc3)ns2)CC1 | active: 1.78 µM
47 | Cc1cc(N2CCC(C)CC2)nc(-n2nc(C)cc2C)n1 | inconclusive: 7.08 µM [inhibitor, partial curve]
48 | Cc1cc(N(C)C)c(C#N)c(=O)[nH]1 | inactive

Row | Compound | Potency
49 | COc1ccc(-n2c(Cc3cccn3C)nnc2SCC(=O)Nc2ccccc2OC)cc1 | inactive
50 | COC(=O)C1=C(c2ccc(F)cc2OCc2ccccc2)C[C@@H]2CC[C@H]1N2C(=O)N1CCC(C)CC1 | inconclusive: 31.6 µM [inhibitor, single point]
51 | O=C(CSc1nc2ccccc2c(=O)n1CCCN1CCOCC1)Nc1cccc(S(=O)(=O)N2CCCCCC2)c1 | active: 12.6 µM
52 | CCN(C[C@H]1N[C@@](Cc2ccccc2)(C(=O)OC)[C@H]2C(=O)N(Cc3ccccc3)C(=O)[C@@H]12)S(=O)(=O)c1ccc(-c2ccccc2)cc1 | inconclusive: 35.5 µM [inhibitor, partial curve]
53 | CC(=O)c1c(C)[nH]c(C(=O)COC(=O)c2cccs2)c1C | inactive
54 | O=C(CNc1ccccc1Cl)Nc1cc(S(=O)(=O)N2CCOCC2)ccc1Cl | inactive
55 | COc1ccc(-c2c(C(C)=O)c(C)nc3sc4c(=O)n(-c5ccc(C)cc5)nnc4c23)cc1 | inconclusive: 0.501 µM [inhibitor, full curve, poor fit]
56 | COc1ccc(N2CCN(S(=O)(=O)c3ccc4c(c3)NC(=O)C(C)S4)CC2)cc1 (configuration not stated) | inconclusive: 11.2 µM [inhibitor, partial curve]
57 | CN1CCN(C(=S)Nc2ccc(S(N)(=O)=O)cc2)CC1 | inactive
58 | CCOC(=O)C1CCCN(CCC(C)c2ccccc2)C1 (configuration not stated) | inactive
59 | COc1cc(NC(=O)CN2C(=O)C(=O)N(C3CCCC3)C2=O)cc(OC)c1 | inactive
60 | CN(C)CCN[C@H]1CCC2C3CC=C4C[C@@H](O)CC[C@]4(C)C3CC[C@@]21C (some centres not stated) | inconclusive: 22.4 µM [inhibitor, single point]
61 | CCc1ccccc1N(C(=O)CCC(=O)Nc1cc(C)on1)C(C(=O)NC1CCCC1)c1ccco1 (configuration not stated) | inconclusive: 12.6 µM [inhibitor, partial curve]
62 | COc1ccc(S(=O)(=O)N2CCN(Cc3cc4c(cc3Br)OCCO4)CC2)cc1 | inconclusive: 31.6 µM [inhibitor, single point]
63 | COc1ccc(-c2noc(CN(C(=O)c3c(-c4ccccc4Cl)noc3C)C(C)C)n2)cc1 | inconclusive: 22.4 µM [inhibitor, single point] and inconclusive: 25.1 µM [inhibitor, single point]
64 | COc1ccc(Cc2nnc(NC(=O)c3ccccc3[N+](=O)[O-])s2)cc1 | inactive
65 | CCN(C(=O)COC(=O)c1ccc2ccccc2n1)c1c(N)n(Cc2ccccc2)c(=O)[nH]c1=O | inactive
66 | Cc1ccc2nc(-c3ccncc3)cc(C(=O)NCCc3ccc(F)cc3)c2c1 | inconclusive: 35.5 µM [inhibitor, partial curve]
67 | COc1ccc(C(=O)NCCOc2cccc(Oc3ccccc3)c2)cc1OC | inconclusive: 11.2 µM [inhibitor, single point]
68 | O=C(CC1Sc2ccccc2NC1=O)NNc1ccc(F)cc1 (configuration not stated) | inactive
69 | O=C(CCCN1C(=O)c2cccc3cccc(c23)C1=O)NCc1cccs1 | inactive
70 | COc1ccc(/C=C2/SC(=S)N(CCC(=O)N3CCN(C)CC3)C2=O)cc1 | inconclusive: 22.4 µM [inhibitor, single point]
71 | O=C(CNC(=O)c1ccc(Br)cc1)c1ccccc1 | inactive
72 | Clc1ccc(/C=C/c2nc3ccccc3[nH]2)c(Cl)c1 | inconclusive: 31.6 µM [inhibitor, single point]
